Reference: PubChem BioAssay AID1347120 (National Center for Advancing Translational Sciences (NCATS), 2019)
Where “and” joins values, the source holds several entries; their conditions need not be identical. Equal values may be shown once. Out of some 390,000 compounds screened, about 930 (0.24%) were called active. The shares of active, inactive and inconclusive entries below differ from those in the screen. The call rests on the fitted dose curve; in most records, active means well fitted activation curve with a large enough effect; inconclusive means small, poorly fitted or top-dose-only effect; inactive means no such curve, though single readings can be large or run the other way. Potencies beside an inconclusive call are fits to weak or partial responses and may not hold up.
Potency means the concentration at half of the fitted maximal effect; tags describe the fitted curve by direction and shape.

Experiment: qHTS for Suppressors of FUS Proteinopathy: Primary screen using FUS-linked yeast assay; further: nearly all actives have a fitted effect of over 55% in size;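 on growth rescue (activation): plate controls were DMSO vehicle for no effect and reference control for full effect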
Settings: S. cerevisiae FUS-expressing, OD600, 24 h; Potency: growth rescue; growth rescue (activation): at 76.6 µM (top of the series)
In short: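 Galactose (2%) drives FUS expression in yeast precultured in raffinose; seeding density OD 0.005. Test compounds incubated 24hr at 30C and 99% humidity before absorbance at 600 nm was measured.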
For `O=C(O)CCc1ccc(-c2cccs2)n1NC(=O)c1ccccc1Br`, the Potency was inconclusive: 56.2 µM [activator, partial curve, poor fit].
With `S=c1[nH]nc(Cn2c(-c3ccccn3)nc3ccccc32)n1-c1ccc2c(c1)OCCO2` the “growth rescue (activation)” value was inactive: 42.8%.
For `CC(=O)c1ccc(NC(=O)CC2Nc3cccc4cccc(c34)NC2=O)cc1` (stereo not drawn), the Potency was inconclusive: 8.91 µM [activator, full curve, poor fit] and inconclusive: 22.4 µM [activator, partial curve].
With `Cc1ccc(N2C(=O)[C@@H]3[C@H](C2=O)[C@H]2C=C(C(=O)c4ccccc4)C=CN2[C@@H]3C(=O)c2ccc(Cl)cc2)cc1` the Potency was active: 28.2 µM.
With `CCC/C=C/c1ccc(CN2C(C)C(=O)N(Cc3cn(CC4CCCCC4)nn3)CCS2(=O)=O)cc1` (stereo not drawn) the Potency was inconclusive: 50.1 µM [activator, single point].
With `Cc1nc(Nc2nc(CSc3nc4ccccc4[nH]3)cc(=O)[nH]2)nc2ccccc12` the Potency was inconclusive: 28.2 µM [activator, single point].
For `COc1ccc(NC(=O)/C(N=Nc2ccc(Cl)c(S(=O)(=O)Nc3ccc(Cl)cc3)c2)=C(\C)O)cc1`, the “growth rescue (activation)” value was inactive: -1.03%.
With `COCCCNC(=O)CCc1nc(-c2ccccc2)no1` the Potency was inconclusive: 39.8 µM [activator, partial curve, poor fit].
For `CC1=CCC(C(=O)O)(C(=O)N/N=C/c2cccs2)C(c2ccc(F)cc2)C1` (stereo not drawn), the “growth rescue (activation)” value was inactive: 21.9%.
For `COCC(=O)N(c1ccc(C(C)(C)C)cc1)C(C(=O)NC(C)(C)C)c1cccnc1` (stereo not drawn), the “growth rescue (activation)” value was inactive: 20.6%.
For `CCOC(=O)C(Cc1ccc(NC(=O)/C(=C/c2ccc(OC(C)=O)cc2)NC(C)=O)cc1)N1C(=O)c2ccccc2C1=O` (stereo not drawn), the Potency was inconclusive: 28.2 µM [activator, single point].
In the case of `COC(=O)c1ccc(NC(=O)CSc2cn(CC(=O)N3CCCCCC3)c3ccccc23)cc1`, the Potency is reported as inconclusive: 31.6 µM [activator, single point].
With `COc1ccc(NC(=O)/C(C#N)=C/c2ccc(Sc3nncn3C)c([N+](=O)[O-])c2)cc1` the Potency was inconclusive: 31.6 µM [activator, partial curve, poor fit].
With `CN(C(=O)c1sc2nc(N3CCCC3)c3c(c2c1N)CC(C)(C)OC3)c1ccccc1` the Potency was inconclusive: 50.1 µM [activator, single point].
For `COc1ccc(S(=O)(=O)N(C)C[C@H]2Oc3ccc(NS(=O)(=O)c4ccccc4)cc3C(=O)N([C@H](C)CO)C[C@@H]2C)cc1`, the Potency was active: 17.8 µM.
With `Cn1cc(S(=O)(=O)c2ccc(Cl)cc2)c(=O)c2cc(F)c(N3CCCC3)cc21` the “growth rescue (activation)” value was inactive: -24.4%.
With `O=C(C1=C[C@@H]2[C@H]3C(=O)N(c4ccc(Cl)cc4)C(=O)[C@H]3[C@@H](C(=O)c3ccc(Cl)cc3)N2C=C1)c1ccccc1` the Potency was inconclusive: 20 µM [activator, partial curve, poor fit].
With `COC(=O)CSc1ncccc1-c1nc2ccccc2[nH]1` the growth rescue (activation) was inconclusive: 73.2% [activator].
In the case of `Cc1ccc(-n2nc3ccc(N)cc3n2)cc1C`, the “growth rescue (activation)” value is reported as inactive: 3.56%.
In the case of `O=C(CN(c1ccccc1)S(=O)(=O)c1ccccc1[N+](=O)[O-])Nc1ccccc1C(=O)N1CCOCC1`, the “growth rescue (activation)” value is reported as inactive: -0.275%.
For `COC(=O)c1cnc(Nc2nc(C(N)Cc3ccc(Cl)cc3)cs2)nc1C(F)(F)F` (stereo not drawn), the Potency was inconclusive: 28.2 µM [activator, partial curve].
For `COc1cccc2c1C(=O)c1c(O)c3c(c(O)c1C2=O)C[C@](O)(C(C)=O)C[C@H]3O[C@@H]1C[C@@H](N)[C@@H](O)[C@@H](C)O1`, the “growth rescue (activation)” value was inactive: -5.96%.
With `CCC(C)OC(=O)c1[nH]c2c(c1C)C(=O)CC(c1ccc(N(C)C)cc1)C2` (stereo not drawn) the Potency was inconclusive: 25.1 µM [activator, single point].
For `COCc1nnc(NC(=O)c2ccc(S(=O)(=O)N3CCCc4ccccc43)cc2)o1`, the Potency was inconclusive: 39.8 µM [activator, partial curve, poor fit].
For `CC(C)(C)OC(=O)N1CCC(c2c(C(=O)N3CCN(c4ccc(Cl)cc4)CC3)cnn2-c2ccc(F)cc2F)CC1`, the Potency was active: 22.4 µM.
With `COC(=O)[C@@]1(Sc2ccc(C)cc2)CC(=O)N(c2cccc(SC)c2)[C@@H]1c1ccccc1` the Potency was inconclusive: 10 µM [activator, single point].
In the case of `CC[C@]12c3[nH]c4cc(-c5ccco5)ccc4c3CCN1C(=O)[C@@H](CC(=O)NCCC1=CCCCC1)C[C@@H]2C(=O)N1CCN(C(=O)C2CC2)CC1`, the Potency is reported as inconclusive: 39.8 µM [activator, single point].
With `Cc1ccccc1OCC(=O)Nc1ccc2nc(SCC(=O)N(C)c3ccccc3)sc2c1` the “growth rescue (activation)” value was inactive: 15.2%.
With `O=C1c2ccc([N+](=O)[O-])cc2C(=O)N1c1ccc([N+](=O)[O-])cn1` the “growth rescue (activation)” value was inactive: 6.57%.
For `OCc1nc2ccccc2n1Cc1c(F)cccc1Cl`, the Potency was “inactive”.
In the case of `FC(F)(F)c1cnc(NNC(=S)Nc2ccc(Cl)cc2)c(Cl)c1`, the “growth rescue (activation)” value is reported as inactive: 0.331%.
With `COc1ccccc1-c1cc(NC=O)c2ncc(-c3cccc(C(F)(F)F)c3)n2c1` the “growth rescue (activation)” value was inactive: 38.7%.
With `C#CC(C)(CC)NC(=O)c1cc2c(n(-c3ccc(Cl)cc3)c1=O)CC(C)(C)CC2=O` (stereo not drawn) the Potency was inconclusive: 17.8 µM [activator, partial curve, poor fit].
For `O=C(C1CCC1)N1CCCc2cc(S(=O)(=O)Nc3ccc(F)cc3)ccc21`, the “growth rescue (activation)” value was inactive: 33.1%.
In the case of `COc1ccccc1N(CC(=O)Nc1ccc(C)c(Cl)c1)S(=O)(=O)c1ccc(C)cc1`, the “growth rescue (activation)” value is reported as inactive: 12.5%.
In the case of `CC(=O)N1c2ccccc2C(=O)C1N1CCN(c2cccc(C(F)(F)F)c2)CC1` (stereo not drawn), the Potency is reported as inconclusive: 50.1 µM [activator, single point].
For `C#CCOCCOCCOCCNc1nc(N2CCN(C(=O)CCCCCCCCCCNC(=O)[C@H](CCCCN)n3cc(CCO)nn3)CC2)nc(N2CCN(C(=O)CCCCCCCCCCNC(=O)[C@H](CCCCN)n3cc(CCO)nn3)CC2)n1`, the Potency was inconclusive: 14.1 µM [activator, partial curve].
In the case of `CCOC(=O)C1=CCC(c2cccc3ccccc23)N(S(=O)(=O)c2ccc(C)cc2)C1` (stereo not drawn), the Potency is reported as inconclusive: 31.6 µM [activator, single point].
With `CC(=O)C(=Cc1ccc(Cl)cc1)C(=O)c1ccccc1` the “growth rescue (activation)” value was inactive: 1.19%.
In the case of `COc1ccc(-c2noc(CN3CCN(c4cccc(Cl)c4)CC3)n2)cc1`, the Potency is reported as inconclusive: 31.6 µM [activator, single point].
In the case of `CCN(CC)c1nn2c(=O)c(C(=O)NCc3cccc(C)c3)cnc2s1`, the “growth rescue (activation)” value is reported as inactive: 26.9%.
In the case of `COC(=O)c1ccccc1S(=O)(=O)N1CCC(C(=O)Nc2ccccc2N2CCOCC2)CC1`, the Potency is reported as inconclusive: 50.1 µM [activator, single point].
With `CCCN1CCN(CCCNC(=O)Cn2c(-c3cccs3)cc3ccccc32)CC1` the “growth rescue (activation)” value was inactive: -10%.
For `Cn1nc(-c2ccccc2F)c2cc(C(=O)N3CCN(c4ccc(F)cc4)CC3)sc21`, the Potency was inconclusive: 22.4 µM [activator, partial curve, poor fit].
For `COC(=O)c1cc(S(=O)(=O)N2CCN(C(=O)c3ccco3)CC2)cn1C`, the “growth rescue (activation)” value was inactive: 1.37%.
For `COc1cc2c(cc1OC)CN(C(=O)c1ccco1)CC2`, the Potency was inconclusive: 31.6 µM [activator, single point].
For `O=C(CN(Cc1ccccc1)S(=O)(=O)c1ccc(Cl)cc1)NCC1CCCO1` (stereo not drawn), the “growth rescue (activation)” value was inactive: 9.85%.
In the case of `O=C(Nc1cc(Oc2ccccc2)cc([N+](=O)[O-])c1)C12CC3CC(C1)CC(n1cnc(Cl)n1)(C3)C2`, the Potency is reported as inconclusive: 12.6 µM [activator, partial curve, poor fit].
With `CC1C(=O)N(Cc2cn(CCC3OCCCO3)nn2)CCS(=O)(=O)N1Cc1ccc(-c2ccc(F)cc2)cc1` (stereo not drawn) the Potency was inconclusive: 20 µM [activator, single point].
For `COc1cccc(NC(=O)Cn2c(=O)n(CCc3ccccc3)c(=O)c3c4c(sc32)CN(C(C)=O)CC4)c1`, the Potency was inconclusive: 31.6 µM [activator, single point].
In the case of `O=[N+]([O-])c1cc(F)c2cccnc2c1O`, the “growth rescue (activation)” value is reported as inactive: -18.8%.
In the case of `CC(C)(C)Sc1ccc(/C=N/O)cc1[N+](=O)[O-]`, the “growth rescue (activation)” value is reported as inactive: -15.3%.
In the case of `Cc1cc(S(=O)(=O)N2CCN(c3ccccc3F)CC2)ccc1-n1cnnn1`, the Potency is reported as inconclusive: 56.2 µM [activator, single point].
With `Cn1c(=O)c(-c2ccccc2[N+](=O)[O-])c(Cl)c2ccccc21` the “growth rescue (activation)” value was inactive: 6.66%.
In the case of `O=C1NC(c2cccs2)Nc2sc3c(c21)CCCC3` (stereo not drawn), the “growth rescue (activation)” value is reported as inactive: 28.8%.
For `Cc1cc(NC(=O)COC(=O)[C@@H](NS(=O)(=O)c2ccccc2)C(C)C)no1`, the “growth rescue (activation)” value was inactive: -21.6%.
For `CCOc1ccc(C(=O)Nc2ccc(-n3nncc3-c3ccccc3)cc2)cc1OCC`, the Potency was inconclusive: 44.7 µM [activator, single point].
In the case of `CCOc1ccc(C(=O)N[C@H](C(=O)Nc2ccc(S(=O)(=O)Nc3nccs3)cc2)C(C)C)cc1`, the Potency is reported as inconclusive: 31.6 µM [activator, single point].
With `CCOC(=O)CC[C@@]1(C(=O)OCC)C[C@@H](CC(=O)N2CCSCC2)C(=O)N2CCCC=C21` the “growth rescue (activation)” value was inactive: 4.24%.
With `Cc1ccccc1CNC(=O)Cn1cnc(S(=O)(=O)N2CCCC2)c1` the “growth rescue (activation)” value was inactive: 5.51%.
For `CC[C@]12c3[nH]c4ccccc4c3CCN1C(=O)C(CC(=O)NCCCn1ccnc1)C[C@@H]2C(=O)N1CCN(C(=O)c2ccco2)CC1` (stereo partly drawn), the “growth rescue (activation)” value was inactive: -3.76%.
With `O=C(Nc1ccc2oc(-c3ccc4ccccc4c3)nc2c1)c1ccc2c(c1)OCCO2` the Potency was inconclusive: 8.91 µM [activator, partial curve, poor fit].
In the case of `Cn1c(N)c(C(=O)COC(=O)CSc2ccc3ccccc3c2)c(=O)n(C)c1=O`, the Potency is reported as inconclusive: 28.2 µM [activator, single point].
